# Out of some 310,000 compounds screened, about 2,200 (0.71%) showed an effect of 50% or more. Effects have a minus sign here. The list shows a part of the results.
# Target: human ether-à-go-go-related gene (hERG) potassium channel (human, UniProt Q12809)
# Experiment: primary screen, population patch clamp on CHO cells stably expressing hERG
# Chain of human ether-à-go-go-related gene (hERG) potassium channel (Q12809 whole entry, looked up): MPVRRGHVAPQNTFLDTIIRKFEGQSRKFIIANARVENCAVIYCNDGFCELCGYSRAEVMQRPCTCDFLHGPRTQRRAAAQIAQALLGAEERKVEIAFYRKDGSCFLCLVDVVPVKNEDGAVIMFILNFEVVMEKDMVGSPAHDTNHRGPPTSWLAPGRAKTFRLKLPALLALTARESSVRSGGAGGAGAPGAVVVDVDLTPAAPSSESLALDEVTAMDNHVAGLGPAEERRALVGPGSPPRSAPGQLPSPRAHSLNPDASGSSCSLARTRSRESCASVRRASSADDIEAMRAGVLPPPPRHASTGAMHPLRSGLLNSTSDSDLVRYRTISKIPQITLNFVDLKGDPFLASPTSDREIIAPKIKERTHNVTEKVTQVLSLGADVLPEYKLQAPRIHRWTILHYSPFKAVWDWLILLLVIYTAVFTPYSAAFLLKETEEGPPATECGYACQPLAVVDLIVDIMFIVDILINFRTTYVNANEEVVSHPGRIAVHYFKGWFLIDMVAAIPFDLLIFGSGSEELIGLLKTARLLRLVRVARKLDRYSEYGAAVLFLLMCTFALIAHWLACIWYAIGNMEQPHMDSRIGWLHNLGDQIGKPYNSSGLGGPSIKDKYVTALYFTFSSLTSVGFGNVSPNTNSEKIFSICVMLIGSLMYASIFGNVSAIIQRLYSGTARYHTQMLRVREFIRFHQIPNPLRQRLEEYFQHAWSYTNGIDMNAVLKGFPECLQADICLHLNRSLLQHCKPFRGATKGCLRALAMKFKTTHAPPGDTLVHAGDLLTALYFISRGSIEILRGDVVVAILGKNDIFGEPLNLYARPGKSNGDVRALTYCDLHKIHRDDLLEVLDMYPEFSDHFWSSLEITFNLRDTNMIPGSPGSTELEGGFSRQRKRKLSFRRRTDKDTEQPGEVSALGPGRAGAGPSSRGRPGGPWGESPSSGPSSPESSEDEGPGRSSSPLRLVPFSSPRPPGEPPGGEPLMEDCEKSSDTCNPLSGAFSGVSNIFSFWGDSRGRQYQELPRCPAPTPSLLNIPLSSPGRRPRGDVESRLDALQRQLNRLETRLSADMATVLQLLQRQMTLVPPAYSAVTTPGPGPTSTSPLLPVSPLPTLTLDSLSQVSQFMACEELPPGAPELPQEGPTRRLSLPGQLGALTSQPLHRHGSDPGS
row,Compound,"hERG current change (%, negative = inhibition) at 1uM"
1,COc1cc(C(=O)N/N=C/c2cn(Cc3cccc(F)c3)c3ccccc23)ccc1O,14.5%
2,CCOCCCN1CC(=O)N2[C@@H](Cc3c([nH]c4ccccc34)C2(C)C)C1=O,8.37%
3,CCN(Cc1ccccc1)C(=O)c1ccc(N(C)S(=O)(=O)c2ccc(C)cc2)cc1,-10.2%
4,O=C(N/N=C\c1ccc(-c2cccc(Cl)c2)o1)C(=O)NC1CCCC1,9.25%
5,O=C(Nc1ccc(Cl)cn1)Nc1ccc(Cl)cn1,1.64%
6,CC(C)[C@H](NC(=O)OCc1ccccc1)C(=O)OCC(=O)N1CCN(c2ccccc2)CC1,-16.8%
7,Cc1ccc(/C=C/C(=O)OCC(=O)NCCN2C(=O)CSC2=O)cc1,-1.1%
8,Cc1ccccc1-c1noc(N)c1C#N,-1.11%
9,CCN(CCNc1ccc([N+](=O)[O-])c2cccnc12)S(=O)(=O)c1ccccc1,9.2%
10,COc1ccc(F)cc1C(=O)C1CCCN(C(=O)Cc2c(C)noc2C)C1 (stereo not drawn),1.73%
11,O=C(O)COc1ccccc1/C=N/NC(=O)c1cc(-c2ccc(F)cc2)nc2ccccc12,7.14%
12,CC(C)[C@H](NC(=O)OCc1ccccc1)C(=O)OCC(=O)Nc1ccc(N2CCOCC2)cc1,3.53%
13,Cc1ccc(-n2[nH]c(C)c(C=Nc3ccc4[nH]c(=O)[nH]c4c3)c2=O)cc1,12.2%
14,CCCCn1c(N)c(N(CC(C)C)C(=O)C2=NN(c3cc(C)ccc3C)C(=O)CC2)c(=O)[nH]c1=O,9.18%
15,CCCCn1c(N)c(N(CC(C)C)C(=O)c2ccc(S(=O)(=O)N(CC)c3ccccc3)cc2)c(=O)[nH]c1=O,5.65%
16,Cc1cc(OCC(=O)Nc2cccnc2)c2c(C)c(C)c(=O)oc2c1,13.2%
17,COc1ccccc1N(CC(=O)NCCSCc1ccccc1)S(=O)(=O)c1ccc(C)cc1,-4.32%
18,O=C(Cc1cccc2ccccc12)Nc1cc(C(=O)O)cc(C(=O)O)c1,17.4%
19,CN1C(=O)CS/C1=N\NC(=O)COc1cccc2cccnc12,10.9%
20,COc1ccc(OC)c(CCNC(=O)c2ccc(NC3=NC4CS(=O)(=O)CC4S3)cc2)c1 (stereo not drawn),10.4%
21,COC(=O)c1c(NC(=O)Cc2cccs2)sc(C(=O)N2CCCCC2)c1C,15.9%
22,CC(C)CNC(=O)c1cnn2c(C(F)(F)F)cc(C(F)(F)F)nc12,6.51%

row,Compound,"hERG current change (%, negative = inhibition) at 1uM"
1,O=C(CCCNS(=O)(=O)c1cccs1)N1CCN(c2cccc(Cl)c2)CC1,5.43%
2,N#Cc1c(NC(=O)c2ccc(Cn3cc(Br)cn3)o2)sc2c1CCCCC2,3.21%
3,Cc1cc2ccccc2n2c(SCC(=O)N3CCOCC3)nnc12,11.2%
4,CCc1cc[n+](-c2nc([O-])sc2C=O)cc1,-2.68%
5,Cc1ccc(-n2nc(-c3ccc(N)cc3)cc2N)cc1,12.7%
6,COc1ccc2c(CC(=O)O)cc(=O)oc2c1,8.88%
7,Cc1noc(/C=C/N(C)C)c1S(=O)(=O)N1CCCC(C(=O)Nc2ccc(F)cc2F)C1 (stereo not drawn),7.51%
8,COc1cccc(-c2nnc(NC(=O)CCS(=O)(=O)c3ccc(C)cc3)o2)c1,17%
9,CC(=O)Cc1nsc(NC(=O)c2ccc(-c3cccc(C(F)(F)F)c3)o2)n1,-10.9%
10,S=C(NCc1ccccc1)N/N=C/c1cccs1,19.5%
11,COc1ccc(CNC(=O)c2ccccc2[N+](=O)[O-])cc1,6.62%
12,COc1ccc(OC)c(S(=O)(=O)N2CCc3ccccc3C2)c1,7.52%
13,C=CCNc1cnn(-c2ccccc2)c(=O)c1Cl,17%
14,CCOC(=O)c1sc2nc(C)[nH]c(=O)c2c1C,9.96%
15,COc1ccccc1NC(=S)N1CCCc2ccccc21,11.7%
16,O=C(COc1ccccc1)NC1C(=O)N2C(C(=O)O)=C(Cl)CSC12 (stereo not drawn),9.71%
17,CC(C)(C)P(=O)(NCc1ccccc1)c1ccccc1 (stereo not drawn),16%
18,CCc1sc(C(=O)NCCCN2CCCC2=O)cc1Br,10.5%
19,Cc1ccc2oc(-c3cccc(NC(=O)c4ccc(Br)o4)c3)nc2c1,6.25%
20,O=C(/C=C/c1ccccc1)Nc1sc2c(c1C(=O)O)CCC2,8.75%
21,CCCN1CCC[C@H](c2cccc(O)c2)C1.Cl,2.7%
22,OCCCNc1ncnc2oc(-c3ccccc3)c(-c3ccccc3)c12,7.88%

row,Compound,"hERG current change (%, negative = inhibition) at 1uM"
1,COc1ccccc1CN1CC(C(=O)NCCc2ccccc2Cl)CCC1=O (stereo not drawn),7.3%
2,CCC(C)NC(=O)c1ccc(Cl)c(S(=O)(=O)Nc2ccccc2N2CCOCC2)c1 (stereo not drawn),9.98%
3,CCN1CCCC1CNC(=O)Cn1ncc2c(=O)oc3ccc(C)cc3c21 (stereo not drawn),6.65%
4,COc1ccc(NC(=O)NCc2cccn2C)c(OC)c1,12.1%
5,O=C(NC(=S)Nc1ccc(NC(=O)c2cccs2)cc1)c1cc2ccccc2o1,0.457%
6,CC1CN(C(=O)CSc2ncnc3sccc23)CC(C)O1 (stereo not drawn),9.01%
7,CN1CCc2c(n(CC(O)CN3CCN(CCO)CC3)c3ccccc23)C1=O.Cl (stereo not drawn),16.9%
8,Cc1noc2ncnc(SCc3ccc(C(F)(F)F)cc3)c12,3.91%
9,COc1ccccc1/C=C1\SC(=O)N(CCC(=O)N(C)C2CCS(=O)(=O)C2)C1=O (stereo not drawn),7.31%
10,COc1ccc(CN2CC(=O)N(c3ccc(C)c(C)c3)C2=S)cc1OC,10.6%
11,CCO[C@@H]1OC(C(=O)Nc2ccccc2)=C[C@H](c2ccc3c(c2)OCO3)[C@H]1CCCO,13.5%
12,Cc1ccc(C2=NNC(c3cccc(F)c3)S2)cc1 (stereo not drawn),9.73%
13,CC(=O)N1CCOc2ccc(S(=O)(=O)NCCc3ccc(S(N)(=O)=O)cc3)cc21,4.69%
14,COc1ccccc1CNCc1cc(OC)c(OC)cc1OC,6.65%
15,O=C(COc1ccc2ccccc2c1)NNC(=O)[C@@H]1CCCC[C@@H]1C(=O)O,17.2%
16,CSc1cccc(CNC(=O)C2CCC(=O)N(CC3CCCCC3)C2)c1 (stereo not drawn),13.3%
17,COc1ccc(CN(C(=O)CSc2nnc(-c3ccc(OC)c(OC)c3)o2)c2ccc(F)cc2)cc1,5.14%
18,CCOc1ccc(N2CC(C(=O)NC3CCSC3=O)CC2=O)cc1 (stereo not drawn),10.6%
19,CCOc1ccc(/C=C/C(=O)c2ccc(-c3ccccc3)cc2)cc1,20.4%
20,Oc1c(Br)cc(Br)cc1/C=N/NC(=S)N[C@H]1CC2C=CC1C2 (stereo partly drawn),11.8%
21,COc1ccc(NC(=O)CN2CCC(n3c(C)nc4cc(F)ccc43)CC2)c(OC)c1,13.6%
22,CCn1cc(Cl)c(C(=O)NNC(=O)CCn2nc(C)c([N+](=O)[O-])c2C)n1,-3.52%

row,Compound,"hERG current change (%, negative = inhibition) at 1uM"
1,O=C(Cc1ccc(-n2c(=O)[nH]c3ccsc3c2=O)cc1)NCc1cccnc1,14%
2,CCn1nc(C)c(CNC(=O)c2cc(COc3ccc(C)nc3)on2)c1C,24.2%
3,Cc1nn(C)cc1CNC(=O)/C=C/c1cnn(C)c1,11.5%
4,Cc1nn2c(NCCOCCO)c3c(nc2c1-c1ccccc1)CCCC3,-75.3%
5,Cc1cc2ccccc2n1CCNC(=O)COc1ccc2ccccc2c1,11.1%
6,CC(=O)N1c2ccc(S(=O)(=O)N3CCC(C(=O)Nc4cc(C)ccn4)CC3)cc2CC1C (stereo not drawn),13.5%
7,COCCC1CCCCN1C(=O)c1cccc(OC2CCN(C3CCCC3)CC2)c1 (stereo not drawn),23.9%
8,CSc1nnc(-c2ccccc2N=Cc2c(C)[nH]n(-c3ccc4ccccc4c3)c2=O)c(=O)[nH]1,9.08%
9,CCOc1ccc(OCC)c(NC(=O)C2CCCN(S(=O)(=O)c3cnc[nH]3)C2)c1 (stereo not drawn),13.2%
10,Cl.O=C(CN1CCN(c2ccc(F)cc2)CC1)NCc1cccs1,0.973%
11,CN(Cc1ccc(C(F)(F)F)cc1)C(=O)c1ccc(Oc2ccccc2)cc1,11.8%
12,CCN(CC)c1cc2nc(C)n(Cc3ccccc3)c(=O)c2cc1NC(=O)C1CC1,0.211%
13,CNC(=O)O/N=C(\C)Cc1nnn(-c2cc(C)on2)n1,8.99%
14,CC(=O)Nc1ccc(Sc2ccccc2C(=O)O)cc1,14.3%
15,O=C1CN(S(=O)(=O)c2cc(C(=O)O)ccc2Cl)c2ccccc2N1,9.56%
16,CC(C)NS(=O)(=O)c1ccc(OCC(=O)N2CCN(c3ccccc3)CC2)cc1,7.22%
17,O=C(O)c1cccnc1SCc1ccccc1,1.43%
18,Cc1nc(NC(C)(C)CO)c([N+](=O)[O-])cc1[N+](=O)[O-],3.21%
19,O=[N+]([O-])c1ccc(N2CCSCC2)cc1,13%
20,COC(=O)N/N=C(\C)c1ccc(OC(F)F)cc1OC(F)F,11.1%
21,COc1ccc(NS(=O)(=O)c2ccc(F)cc2F)cn1,19.5%
